In patent publication US10226048B2 (priority 2014, dated 2019):

Test: Oxidization ability against sodium thiosulfate
Conditions: acidic solution (pH 2)

CC(=O)OO [PAA, Peracetic Acid]
PAA consumed to oxidize STS and its degradation intermediate: less than 50%
